Tests used:
[1] = Hydroxyl radical scavenging activity test (DMPO); settings: compounds dissolved in acetone at 0.5 mg/ml; FIG. 5
Procedure: (§1) Pochoniolides A, B, and C were evaluated in terms of hydroxyl radical (.OH) and singlet oxygen (^1O2) scavenging activity using dihydroquercetin as a positive control. Active oxygen species were measured in accordance with the method described in Yusuke Katsuda et al., 2015, PLOS ONE, doi:10.1371/journal.pone.0138394. In the case of the hydroxyl radical (.OH) scavenging activity test, compounds were dissolved in acetone at 0.5 mg/ml. In the case of the singlet oxygen (^1O2) scavenging activity test, compounds were dissolved in acetone at 0.25 mg/ml. Thus, hydroxyl radical (.OH) scavenging activity and singlet oxygen (^1O2) scavenging activity were evaluated.

[2] = Singlet oxygen scavenging activity test; settings: compounds dissolved in acetone at 0.25 mg/ml; FIG. 6
Procedure: as §1

Compound | hydroxyl radical (.OH) scavenging activity level (rank order) [1] | singlet oxygen (1O2) scavenging activity level (rank order) [2]
O=C1c2c(O)cc(O)cc2O[C@H](c2ccc(O)c(O)c2)[C@H]1O [dihydroquercetin, reference compound] | lower in the order of pochoniolide C, pochoniolide B, pochoniolide A, and dihydroquercetin | lower in the order of pochoniolide B, pochoniolide A, pochoniolide C, and dihydroquercetin
O=C(O)CC1OC(=O)C=C1c1coc2cc(O)cc(O)c2c1=O (centres unmarked) [pochoniolide A] | lower in the order of pochoniolide C, pochoniolide B, pochoniolide A, and dihydroquercetin | lower in the order of pochoniolide B, pochoniolide A, pochoniolide C, and dihydroquercetin
pochoniolide B | lower in the order of pochoniolide C, pochoniolide B, pochoniolide A, and dihydroquercetin | lower in the order of pochoniolide B, pochoniolide A, pochoniolide C, and dihydroquercetin
O=C(O)CC1OC(=O)C=C1C1Oc2cc(O)cc(O)c2C(=O)C1O (centres unmarked) [pochoniolide C] | lower in the order of pochoniolide C, pochoniolide B, pochoniolide A, and dihydroquercetin | lower in the order of pochoniolide B, pochoniolide A, pochoniolide C, and dihydroquercetin

Reference: patent publication US20200131161A1, “NOVEL POCHONIOLIDE COMPOUND AND USE THEREOF” (THE KITASATO INSTITUTE, priority 2017, published 2020)
